{"source": "PubChem BioAssay AID686978", "about": "(National Center for Advancing Translational Sciences (NCATS), 2013)", "note": "About 64,000 (15%) of roughly 420,000 compounds were called active. This list was built around the results that the source calls inconclusive (neither active nor inactive); the mix of calls is not that of the screen. Calls come from the whole dose curve; as a rule, active = well fitted inhibition curve with a large enough effect; inconclusive = small, poorly fitted or top-dose-only effect; inactive = flat fitted curve, though single readings scatter. No potency is given beside an inconclusive call; the fits are too rough. % is set by controls: 0 for no effect and ±100 for the full control effect; potency is the fitted concentration of half-maximal effect; tags give direction and shape of the fitted curve."}
{"assay": "qHTS for Inhibitors of human tyrosyl-DNA phosphodiesterase 1 (TDP1): qHTS in cells in absence of CPT; note: nearly all actives have a fitted effect of over 55% in size", "settings": "DT40 Tdp1-/- hTDP1 cells, no CPT, ATP luminescence, 48 h; activity change, negative = growth inhibition: at 46.2 µM (top of the series) unless noted", "procedure,_shortened": "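Luminescent ATP content (CellTiter-Glo) served as the growth readout. Knockout chicken DT40 cells expressing human TDP1 were exposed to compounds without camptothecin for a minimum 48 hr at 37 °C.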"}
{"smiles": "CC1CCCN(CC(O)COc2ccc(-c3ccccc3)cc2)C1", "note": "(configuration not stated)", "Potency": "inconclusive [inhibitor, partial curve, poor fit]"}
{"smiles": "Cc1ccc(C(=O)N2CC(=O)Nc3ccc(F)cc3C2c2ccccc2)cc1[N+](=O)[O-]", "note": "(configuration not stated)", "Potency": "active: 20.6 µM"}
{"smiles": "Cc1ccc(-n2nc3c(=O)n(CCCC(=O)NC(C)c4ccccc4)nc(C)c3c2C)cc1", "note": "(configuration not stated)", "Potency": "inconclusive [inhibitor, partial curve]"}
{"smiles": "CCOC(=O)/C(C#N)=C/c1ccc(-c2ccc(C)cc2)o1", "Potency": "inconclusive [inhibitor, single point]"}
{"smiles": "CCCCCC/C=N/Nc1nnc(Cc2ccc(OC)c(OC)c2)c(=O)[nH]1", "activity change, negative = growth inhibition": "inconclusive: -31.7% [inhibitor]"}
{"smiles": "Cc1ccc2oc(C(=O)Nc3sc4c(c3C(=O)NCc3cccnc3)CCCC4)cc(=O)c2c1", "Potency": "inconclusive [inhibitor, partial curve]"}
{"smiles": "COC(=O)c1ccccc1NC(=O)CN1CCN(Cc2ccccc2)CC1", "Potency": "inconclusive [inhibitor, single point]"}
{"smiles": "CCCS(=O)(=O)c1c(S(=O)(=O)CCC)c2c(N)cccn2c1C(=O)c1ccc(F)cc1", "Potency": "inconclusive [inhibitor, partial curve]"}
{"smiles": "O=C(NCC[C@H]1CC[C@@H](NC(=O)C2CCOCC2)[C@@H](CO)O1)Nc1ccc(Cl)cc1", "activity change, negative = growth inhibition": "inactive: -1.87%"}
{"smiles": "COc1ccc(CCC(=O)NCCS(=O)(=O)N2CCN(c3ccccc3F)CC2)cc1", "Potency": "inconclusive [inhibitor, partial curve]"}
{"smiles": "CN1C(=O)S/C(=C\\c2ccc(-n3cncn3)cc2)C1=O", "Potency": "inconclusive [inhibitor, partial curve]"}
{"smiles": "O=C1CCc2cc(S(=O)(=O)NCCc3ccccc3)cc3c2N1CC3", "Potency": "inconclusive [inhibitor, single point]"}
{"smiles": "CN1CCN(c2ccc(NC(=O)c3ccc(Br)o3)cc2)CC1", "activity change, negative = growth inhibition": "inactive: 11.6%"}
{"smiles": "C=CCn1c(SCC(=O)Nc2c(C)n(C)n(-c3ccccc3)c2=O)nc2sc(C)c(-c3ccccc3)c2c1=O", "Potency": "inconclusive [inhibitor, single point]"}
{"smiles": "COC(=O)C1=C[C@@H](C(=O)OC)C2C3=C(C(=O)C24CCCCC4)[C@H](C)n2c(=O)n(-c4ccccc4)c(=O)n2[C@@H]3C1", "note": "(some centres not stated)", "Potency": "inconclusive [inhibitor, single point]"}
{"smiles": "CCOC(=O)CCc1c(C)c(C#N)c2[nH]c3ccccc3n2c1=O", "Potency": "inconclusive [inhibitor, single point]"}
{"smiles": "CC1Sc2ccc(C(=O)NCc3ccccn3)cc2NC1=O", "note": "(configuration not stated)", "Potency": "active: 0.651 µM"}
{"smiles": "COc1cc(-c2noc(C3CCCN(C(=O)c4ccccc4)C3)n2)cc(OC)c1OC", "note": "(configuration not stated)", "Potency": "inconclusive [inhibitor, single point]"}
{"smiles": "NC(=O)Cn1cc(/C=N/NC(=O)c2ccc(Cn3cc(Cl)cn3)o2)c(-c2ccccc2)n1", "activity change, negative = growth inhibition": "inactive: 1.06%"}
{"smiles": "Cc1nc2sc(C(c3ccccc3)N3CCN(c4ccccc4F)CC3)c(O)n2n1", "note": "(configuration not stated)", "Potency": "inconclusive [inhibitor, single point]"}
{"smiles": "Cc1cccc(N(CC(=O)NCC2CCCO2)C(=O)CNS(=O)(=O)c2ccc(Cl)cc2)c1", "note": "(configuration not stated)", "activity change, negative = growth inhibition": "inactive: -22.2%"}
{"smiles": "Cc1ccc(C(=O)NC(C)c2ccc3c(c2)OCO3)s1", "note": "(configuration not stated)", "Potency": "active: 16.4 µM"}
{"smiles": "CN(Cc1ccccc1)C(=O)c1ncn2c1c(=O)[nH]c1cccnc12", "activity change, negative = growth inhibition": "inactive: 4.08%"}
{"smiles": "Cc1csc(SCC(=O)Nc2ccccc2C)n1", "activity change, negative = growth inhibition": "inactive: -7.53%"}
{"smiles": "CC1CN(CCCCSc2ccc(Cl)cc2)CC(C)O1", "note": "(configuration not stated)", "Potency": "inconclusive [inhibitor, single point]"}
{"smiles": "CCN=C1Sc2nc3ccc(OCC)cc3cc2CN1CCOC", "Potency": "inconclusive [inhibitor, single point]"}
{"smiles": "CCOc1ccccc1NC(=O)CN1C(=O)COc2ccc(S(=O)(=O)NC3CCCC3)cc21", "Potency": "inconclusive [inhibitor, single point]"}
{"smiles": "CCOC(=O)C1CCN(C(=O)Nc2ccc3c(c2)nc(C)n3C)CC1", "activity change, negative = growth inhibition": "inactive: 2.41%"}
{"smiles": "CCCNC(=O)c1ccc(Cn2c(=O)c3cccn3c3cccnc32)cc1", "activity change, negative = growth inhibition": "inactive: 6.74%"}
{"smiles": "COc1cc(Cl)c(C)cc1NC(=O)COC(=O)C1=NN(c2ccccc2)C(=O)CC1", "activity change, negative = growth inhibition": "inactive: 6.99%"}
{"smiles": "O=C(O)COc1ccc(/C=N/NC(=O)c2cn(-c3ccccc3)nc2-c2ccccc2)cc1", "Potency": "inconclusive [inhibitor, partial curve]"}
{"smiles": "COCC(C)OC(=O)c1c(N)n(CCCN2CCOCC2)c2nc3ccccc3nc12", "note": "(configuration not stated)", "Potency": "inconclusive [inhibitor, partial curve, poor fit]"}
{"smiles": "CCc1ccccc1NC(=O)c1ccc2c(c1)nnn2C1CCCC1", "Potency": "inconclusive [inhibitor, single point]"}
{"smiles": "COc1ccc(C(=O)Nn2cnc3scc(-c4cccs4)c3c2=O)c(O)c1", "activity change, negative = growth inhibition": "inconclusive: -33.4% [inhibitor]"}
{"smiles": "CNc1ccc(S(=O)(=O)NCC(=O)NCCCc2ccccc2)cc1[N+](=O)[O-]", "Potency": "inconclusive [inhibitor, single point]"}
{"smiles": "Cc1cccc(Oc2nc(-c3ccccn3)nc3ccccc23)c1", "Potency": "active: 1.03 µM"}
{"smiles": "COc1ccccc1N1CCN(Cc2cc(=O)oc3ccccc23)CC1", "Potency": "inconclusive [inhibitor, single point]"}
{"smiles": "Cc1cccc(NC(=O)c2nc[nH]c2C(=O)NCCCCNC(=O)c2[nH]cnc2C(=O)Nc2cccc(C)c2)c1", "Potency": "active: 20.6 µM"}
{"smiles": "COc1ccc(-c2nc(C)c(C(C)=O)n2O)cc1OC", "Potency": "inconclusive [inhibitor, single point]"}
{"smiles": "COc1ccccc1CNC(=O)CCC1N=C2c3ccccc3N=C(SCc3ccc(Cl)cc3)N2C1=O", "note": "(configuration not stated)", "Potency": "inconclusive [inhibitor, single point]"}
{"smiles": "O=C1NCCc2c1[nH]c1ccc([N+](=O)[O-])cc21", "Potency": "inconclusive [inhibitor, partial curve]"}
{"smiles": "C[C@@H]1CC[C@H]2C(=O)N3[C@@H](CC[C@@H](C)[C@@H]3c3ccc(Br)cc3)C(=O)N2[C@H]1c1ccc(Br)cc1", "Potency": "inconclusive [inhibitor, single point]"}
{"smiles": "COc1ccc(OC)c(C2C=C(c3ccc(C)c(C)c3)Nc3nnnn32)c1", "note": "(configuration not stated)", "Potency": "active: 2.31 µM"}
{"smiles": "CS(=O)(=O)c1ccc(Nc2nc(C(N)Cc3ccc(Cl)cc3)cs2)cc1", "note": "(configuration not stated)", "Potency": "active: 16.4 µM"}
{"smiles": "Cc1cc2cc(CN(Cc3ccco3)C(=O)C3CCCCC3)c(=O)[nH]c2cc1C", "activity change, negative = growth inhibition": "inconclusive: -31.8% [inhibitor]"}
{"smiles": "CCOC(=O)N1CCC(NS(=O)(=O)c2cc3c(cc2Br)CCN3C(=O)CC)CC1", "Potency": "inconclusive [inhibitor, single point]"}
{"smiles": "CCC(C)n1nnc2c(=O)oc3ccccc3c21", "note": "(configuration not stated)", "activity change, negative = growth inhibition": "inactive: -13.3%"}
{"smiles": "COc1ccc2c(c1)OC[C@H]1[C@H]2N2C(=O)c3ccccc3NC(=O)[C@@]2(C)[C@H]1c1ccccc1", "Potency": "inconclusive [inhibitor, single point]"}
{"smiles": "COCc1cc(=O)[nH]c(Cc2c(Cl)cccc2Cl)n1", "activity change, negative = growth inhibition": "inactive: 9.82%"}
{"smiles": "CCCCCNC(=O)c1cn(CC)c2cc(N3CCN(C)CC3)c(F)cc2c1=O", "Potency": "inconclusive [inhibitor, partial curve]"}
{"smiles": "Cc1cccc(C(=O)NNC(=O)c2cc3cc4ccccc4nc3s2)c1", "Potency": "inconclusive [inhibitor, partial curve, poor fit]"}
{"smiles": "CCN(CC)C(=O)c1ccc(CS(=O)(=O)c2ccc(Br)cc2)cc1", "activity change, negative = growth inhibition": "inactive: -8.72%"}
{"smiles": "CCOC(=O)[C@]12CCC=C1N(Cc1ccc3c(c1)OCO3)C(=O)[C@H](CC(=O)NCCCCc1ccccc1)C2", "Potency": "active: 20.6 µM"}
{"smiles": "Cc1ccc(C)c(C(=O)O/N=C(\\N)c2ccc(Br)cc2)c1", "Potency": "inconclusive [inhibitor, single point]"}
{"smiles": "CCOC(=O)c1c(C)c(-c2ccccc2)n(CC(=O)Nc2cc(C)cc(C)c2)c1C", "Potency": "inconclusive [inhibitor, single point]"}
{"smiles": "C=CCSC1=N/C(=C\\c2cc(OCC)c(OC(C)=O)c([N+](=O)[O-])c2)C(=O)S1", "Potency": "inconclusive [inhibitor, single point]"}
{"smiles": "COC(=O)[C@@]1(Cc2ccc(F)cc2)[C@H]2c3cc(C(=O)N(C)C)n(Cc4ccc(S(C)(=O)=O)cc4)c3C[C@H]2CN1C(=O)c1ccccc1", "Potency": "inconclusive [inhibitor, single point]"}
{"smiles": "CN(C(=O)Nc1cccc(C(F)(F)F)c1)C1CCCCC1", "activity change, negative = growth inhibition": "inactive: 0.0472%"}
{"smiles": "CC(C)C(=O)Nc1ccc(N2CCOCC2)c(S(=O)(=O)Nc2ccccc2Cl)c1", "Potency": "active: 13 µM"}
{"smiles": "COc1ccccc1N1CCN(S(=O)(=O)c2cccc3nsnc23)CC1", "Potency": "inconclusive [inhibitor, single point]"}
{"smiles": "O=C1CCCc2cc(S(=O)(=O)NCC3CCC(C(=O)NCc4ccc(F)cc4)CC3)ccc2N1", "note": "(configuration not stated)", "Potency": "inconclusive [inhibitor, partial curve]"}
{"smiles": "O=C(CC(c1ccccc1)c1cc(Br)ccc1O)NCCCN1CCOCC1", "note": "(configuration not stated)", "Potency": "inconclusive [inhibitor, single point]"}
{"smiles": "O=C(O)CC1(CC(=O)NCc2cccc(Cl)c2)CCCCC1", "activity change, negative = growth inhibition": "inactive: 20.7%"}
{"smiles": "O=C(Nc1ccccc1Cl)Nc1cccc2cccnc12", "activity change, negative = growth inhibition": "inactive: -2.9%"}
{"smiles": "COc1ccc(-n2ncc3c(NCCN4CCOCC4)ncnc32)cc1", "activity change, negative = growth inhibition": "inactive: -2.69%"}
{"smiles": "Cc1nc2ccccc2n1CC(=O)N/N=C\\C=C\\c1ccccc1", "Potency": "inconclusive [inhibitor, single point]"}
{"smiles": "COc1cccc2cc(-c3nnc(SCC(=O)Nc4nc(C)cs4)n3C)oc12", "Potency": "inconclusive [inhibitor, single point]"}
